The source gives no read counts; variants with many changes may rest on few reads.

In the RNAGym collection of RNA variant scans (doi:10.1093/nar/gkz1192) one finds self-cleavage data, which are given here for 167 variants.

The labels stand for the following.
B1: CPEB3 Ribozyme (parent)
chain: UAACAGGGGGCCACAGCAGAAGCGUUCACGUCGCAGCCCCUGUCAGAUUCUGGUGAAUCUGCGAAUUCUGCUGUAUAUCUC

The data set covers variants of B1. The experiment in a line: self-cleavage, relative activity (ratio to wild type); higher = more cleavage; in vitro, sequencing. In short, it runs like this: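 Relative activity compares each variant's cleaved/total read fraction with that of the unmutated ribozyme. To get these fractions, barcoded CPEB3 ribozyme libraries from rounds of error-prone PCR were transcribed with T7 RNA polymerase for 5 hours at 37°C and then given 15 min of DNase I treatment before EDTA was added. The RNAs were reverse transcribed with template switching and sequenced on Illumina, and DNA sequencing linked barcodes to variants. A minimum of 5 reads applied, and three batches were averaged.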
Consider U31C C39A A57U U78C, for which the self-cleavage worked out at 0.13.
U31C A35C C62U: the self-cleavage is 0.41.
On to U31C G36A U43A U49A, for which the self-cleavage was found to be 0.51.
U31C C34U A45G A57G U67A: the self-cleavage amounted to 0.09.
As for U31C A35U U78A, the figure is 0.3; as for U31C C32U A65G, 0.1.
As for U31C C32U U41C U51C U69A, the figure is 0.37; as for U31A U69C U80A, 0.4; as for U31C C32A C71G U78A, 0.06.
The result for U31C A47G U48C U51C U60A U72C reads 0.1.
Take U31C C40A U67A U69A: the self-cleavage came to 0.08.
The result for U31C A35G A47G A56G A65G reads 0.59; that for U31C A35U G61U U72C, 0.09; that for U31C A45U A65C, 0.13.
For the variant U31C C32A C62U A65G U74C, the self-cleavage came out at 0.05.
U31C A35G U41C U48A U58A G73U U74C: the self-cleavage worked out at 0.22.
The result for U31C A56G U58C U67C G70A reads 0.11; that for U31C A47G U72A U78A U80C, 0.65.
In the case of U31C C40U U48C, the self-cleavage amounted to 0.15.
Consider U31C A35G U60A A64G U69A U80A, for which the self-cleavage came out at 0.55.
For the variant U31C A45G U49C U51C A64U U67C, the self-cleavage was determined as 0.05.
The result for U31C A35C C37U A45G A64G reads 0.08; that for U31C A35G A45G U54A U78C, 0.69.
For the variant U31C C37G U51A A57G, the self-cleavage came out at 0.08.
Turning to U31C A45U U67C, the self-cleavage is 0.2.
With U31C A35U U49C, the self-cleavage amounted to 0.15.
Regarding U31C C39U A75G, the self-cleavage worked out at 0.28.
As for U31C A35G U41A A45G U48C U54G, the figure is 0.26.
The result for U31C C37G U72A A77G reads 0.51.
For U31C C39A A47G, the self-cleavage worked out at 0.19.
With U31C C40A U54C A56G U67C, the self-cleavage was determined as 0.34.
Turning to U31C A35G C38U A56G U60A, the self-cleavage worked out at 0.3.
Turning to U31C C32G U41A U67A U76C, the self-cleavage turned out to be 0.18.
The result for U31C A47G U49G U54A U72C U78C reads 0.2.
As for U31C A45U A56G U66C U72C, the figure is 0.32; as for U31C A56G U72C, 0.79.
The result for U31C G33A U43C A45G A65G reads 0.18; that for U31C A47G A56G U66C A75G, 0.08; that for U31C A47G U58C A65G, 0.24.
Turning to U31C A47U U48C U54C A77G, the self-cleavage is 0.08.
The result for U31C C32U U54C U67C reads 0.13; that for U31C A64G U72C, 0.6.
The result for U31C C34A U48C A56G U67A reads 0.09.
Take U31C C37A U54C: the self-cleavage amounted to 0.33.
As for U31C G33A C40A A64U G73U, the figure is 0.17; as for U31C A56G A65G, 0.35.
As for U31C A35C U48C U54A, the figure is 0.43.
The result for U31C A65U C68G reads 0.1; that for U31C A35U C50U U80C, 0.28.
For U31C A45G A56G U72A, the self-cleavage was 0.26.
Consider U31C A47U A57G U58A U60A A65G, for which the self-cleavage was found to be 0.06.
U31C A45G U49C U60A: the self-cleavage is 0.15.
The result for U31C C44U U54G reads 0.09.
For U31C C37U U43C U66C, the self-cleavage was 0.27.
U31C G36A A45G: the self-cleavage was found to be 0.08.
The result for U31C A64U U74C reads 0.24; that for U31C A56G U58C U78A, 0.21; that for U31C A35G G42A A56G U60C, 0.15.
As for U31C A45U C59A C68A, the figure is 0.13; as for U31C A57G C79U, 0.96.
The result for U31C A45G G70A reads 0.29; that for U31C C44U A45G U54C U58C, 0.06; that for U31C A45C U58G, 0.1.
Turning to U31C A45C A57G A77G U78C, the self-cleavage was 0.14.
Turning to U31C A65U C68G U80C, the self-cleavage is 0.12.
U31C C40A G73A: the self-cleavage was 0.38.
As for U31C A45U C71G U72C, the figure is 0.11; as for U31C C32G G36A A45G C59U U69A, 0.1.
As for U31C A56G A64G U80C, the figure is 0.18.
Consider U31C A35G U43C A57U, for which the self-cleavage is 0.2.
Turning to U31C A64U C81U, the self-cleavage was determined as 0.19.
The result for U31C C40A U67C reads 0.16.
U31C A35G G55A A57G A77G: the self-cleavage was 0.72.
As for U31C A45G U60G U66C A75G, the figure is 0.06; as for U31C G33A A57G A64G, 0.08.
The result for U31C C34G U54A A56G reads 0.19; that for U31C G33U A45U, 0.15; that for U31C A45C U66C, 0.16.
In the case of U31C A65U U72C U78C, the self-cleavage came to 0.22.
The result for U31C G33A U41C U69C U76G reads 0.05; that for U31C A35G U51C U78C, 1.22.
Consider U31C C68A U76C, for which the self-cleavage worked out at 0.21.
The result for U31C G33C U41G U43C G63U reads 0.11; that for U31C A45U A65G A77G, 0.08.
Turning to U31C G33U A56U U78C, the self-cleavage is 0.26.
As for U31C G33U G36U U49C A64G U78C, the self-cleavage was determined as 0.06.
Regarding U31C C38U U48C U49C A56G A75G, the self-cleavage was 0.11.
In the case of U31C C32G U78C, the self-cleavage came out at 0.11.
As to U31C A64G U78C, the self-cleavage amounted to 0.39.
As for U31C G36A G63C U69C U76C, the self-cleavage came out at 0.1.
As for U31C A45G U48C, the figure is 0.22.
As for U31C A57G A64G, the figure is 0.1; as for U31C A35U U43A A77U, 0.6; as for U31C A45G U60C, 1.07.
As for U31C C32U A57G, the figure is 0.16.
For U31C A45U U60C A65U, the self-cleavage is 0.1.
U31C G36A A45G A65G U69C: the self-cleavage came out at 0.21.
Consider U31C A35U A45U G53A U54G, for which the self-cleavage stood at 0.11.
As for U31A U69C U72C, the figure is 0.14.
The result for U31C C39A U78C reads 0.43; that for U31C G33A U69C, 0.14; that for U31C C39A A45G, 0.15.
The result for U31C A56G U60A reads 0.32; that for U31C A47G U58C, 1; that for U31C A57G A65G, 0.17.
With U31C A45G G55A U60C U72A, the self-cleavage is 0.55.
As for U31C A56U G63A, the figure is 0.38; as for U31C A56G U60G A65U, 0.07; as for U31C A35U A64G, 0.1.
U31C A35U A45U U49A A56U: the self-cleavage worked out at 0.14.
With U31C C40U U67A, the self-cleavage amounted to 0.23.
As for U31C A35U U43A U58C, the figure is 0.14; as for U31C A56U U72C A77G U80C, 0.48.
The result for U31C G33U U41A U74C U76A reads 0.14.
U31C A45C U72C: the self-cleavage turned out to be 0.15.
As for U31C A35U C38G A75G, the figure is 0.03; as for U31C C32U U54C A56U A57G, 0.07.
Turning to U31C A35G A56G, the self-cleavage stood at 0.91.
With U31C G33A C40U U54C, the self-cleavage was 0.12.
In the case of U31C A35G A45U U69A U72A, the self-cleavage came out at 0.12.
As for U31C A65C U72C, the figure is 0.13; as for U31C A35G A47C U72C, 0.38.
The result for U31C C39U A57C reads 0.24; that for U31C A35C U49C, 0.23; that for U31C A47U A56G U69A, 0.1.
The result for U31C C40A U41C U48C A77G reads 0.09.
Consider U31C A56U U80A, for which the self-cleavage is 0.22.
As for U31C C40U A57G U78C, the figure is 0.19; as for U31C A35G C50A U54G, 1.12; as for U31C C40A U48A U60A, 0.12.
The result for U31C A35U A45U C62A A77U reads 0.15; that for U31C C38G U41A U69C, 0.08; that for U31C A35G U60C U66C C68G U72C, 0.21.
Turning to U31C C62G U76G A77U, the self-cleavage was 0.1.
In the case of U31C C38A C40U A57G, the self-cleavage was found to be 0.13.
U31C A45U A57G: the self-cleavage came to 0.38.
As for U31C A56G G73C U80C, the figure is 0.44.
Turning to U31C C32G C38A U41C U67C U69C C71G, the self-cleavage came to 0.13.
As for U31C A35G U58A, the self-cleavage was determined as 0.53.
The result for U31C A35U A45U G53A U54G U80C reads 0.12; that for U31C A35G U43A U60C U72A, 0.6; that for U31C C37U U67C C68A, 0.1.
Regarding U31C A47U A65C, the self-cleavage was found to be 0.15.
Regarding U31C C38U C44U A75G, the self-cleavage stood at 0.13.
As for U31C C44G U51C U58C A65G U78C, the figure is 0.06; as for U31C A57U A75G, 0.37.
As for U31C A35G U67C, the figure is 0.25.
As for U31C A45U U49C A57U U78C, the figure is 0.11.
For U31C A56G U78A, the self-cleavage came to 0.46.
For the variant U31C A35G C62U U78C, the self-cleavage was 0.14.
Turning to U31C A56U U78C, the self-cleavage was found to be 0.41.
As for U31C A35U U72C, the figure is 0.14; as for U31C A57G U74A, 1.09; as for U31C A47U U51A U60A U72C, 0.09.
The result for U31C A35U U54A G61A reads 0.15; that for U31C A47G U60C U76C, 0.15.
With U31C A35G U60C U66C C68G, the self-cleavage was found to be 0.16.
The result for U31C C39U U48C U66A reads 0.08; that for U31C A47U U58A U72G, 0.49; that for U31C A45G U51C, 0.49.
With U31C A35G G52U U54C G55C A64G, the self-cleavage was 0.98.
As for U31C A35U U67C A75G, the figure is 0.08; as for U31C C38G A56U, 0.19; as for U31C A35G U51C U54C U67C, 0.38.
As to U31C C40U U49C, the self-cleavage amounted to 0.17.
The result for U31C A56G A57C U78C reads 0.15.
For the variant U31C C34U U41A U54A, the self-cleavage amounted to 0.23.
